Reference: PubChem BioAssay AID624296 (National Center for Advancing Translational Sciences (NCATS), 2012)
The campaign covered roughly 350,000 compounds. About 9,900 (2.8%) were called active. The shares of active, inactive and inconclusive entries below differ from those in the screen. The call rests on the fitted dose curve; in most records, active means well fitted activation curve with a large enough effect; inconclusive means small, poorly fitted or top-dose-only effect; inactive means no such curve, though single readings can be large or run the other way. No potency is given beside an inconclusive call; the fits are too rough.

Assay: A quantitative high throughput screen for small molecules that induce DNA re-replication in MCF 10a normal breast cells. Further: nearly all actives have a fitted effect of over 50% in size. On activity, positive = re-replication: % of control where 0% means no effect.
Conditions: MCF 10A DNA re-replication, Hoechst nuclear intensity, 48 h; activity, positive = re-replication: at 46.1 µM (top of the series)
Excerpt: H Molecular Libraries Probe Production Network [MLPCN]
NIH Chemical Genomics Center [NCGC]
Assay Provider: Melvin DePamphilis, NICHD, NIH
Eukaryotic cells normally restrict genome duplication to once per cell division. When this process is aberrant, DNA re-replication occurs when cells reinitiate DNA replication before the first round of replication is complete. DNA re-replication induces the DNA damage response, arrests cell proliferation, and triggers apoptosis. The cell cycle components cyclin A, Cdt-1, Cdc6 and geminin are critical regulators of this process and their misregulation results in DNA re-replication in normal and cancer cells. To identify compounds that induce re-replication in normal cells, an image-based assay was used to measure DNA content of nuclei, as detected by the fluorescent DNA binding dye, Hoechst. Cell nuclei were imaged by a fluorescence scanning plate imager and compounds that induce DNA re-replication were identified by the increase of nuclei with elevated fluorescence intensity
For screening, 250 cells in 5 uL/well were dispensed into black clear 1536-well plates (Aurora) using a solenoid-based dispenser. Following transfer of 23 nL compound or DMSO vehicle by a pin tool, the plates were incubated 48 hr at 37 C and 5% CO2. After addition of 1 uL/well Hoescht stain, the plates were incubated 40 min at 37 C, 5% CO2 and total intensity of fluorescent objects (nuclei) were enumerated by an Acumen Explorer Ex3 (TTP LabTech) fluorescence scanning plate imager (405 nm excitation, 500-530 nm emission).
Keywords: NIH Roadmap, MLPCN, MLI, MLSMR, qHTS, NCGC, DNA replication, cancer
Potency means the concentration at half of the fitted maximal effect; tags describe the fitted curve by direction and shape.

Compound	Potency	activity, positive = re-replication
CCc1ccc(-c2csc(NC(=O)c3cccnc3)n2)cc1	inconclusive [activator, partial curve, poor fit]	–
C[C@@H]1CN([C@@H](C)CO)C(=O)c2cccc(NC(=O)c3nc4ccccc4s3)c2O[C@@H]1CN(C)CC1CC1	–	inactive: -6.47%
Cc1[nH]c(C)c(S(=O)(=O)NCCc2ccccc2)c1C(=O)N1CCCCC1	–	inactive: 0.108%
COc1ccc(S(=O)(=O)N2CCOCC2)cc1NC(=O)CSc1nnc2c(n1)[nH]c1ccccc12	–	inactive: -1.12%
COc1ccc(-c2cc(C(F)(F)F)n3nc(C(=O)NCCN4CCOCC4)cc3n2)cc1	–	inactive: -7.23%
O=S(=O)(Nc1cccc(S(=O)(=O)N2CCCC2)c1)c1cccc(Br)c1	inconclusive [activator, single point]	–
COc1cc(/C=C2/S/C(=N/S(=O)(=O)c3ccccc3)NC2=O)c([N+](=O)[O-])cc1OC	inconclusive [activator, single point]	–
CC(=O)Nc1cc(Br)ccc1O	active: 0.731 µM	–
COc1ccc(C2C(C#N)=C(SCC(=O)Nc3ccc(C)cc3)NC3=C2C(=O)CC(C)(C)C3)cc1 (stereo not given)	inconclusive [activator, single point]	–
Cc1ccc(OCC(O)Cn2c(=N)n(CCN3CCCCC3)c3ccccc32)cc1 (stereo not given)	inconclusive [activator, single point]	–
Cc1ccc(S(=O)(=O)N2[C@@H](c3cccc(Cl)c3)C(C(=O)O)=CC[C@H]2c2cccc(C)c2)cc1	inconclusive [activator, full curve, poor fit]	–
CCOc1ccc(NC(=O)/C(C=Nc2ccccc2)=C(\C)O)cc1	–	inactive: 2.89%
O=C(c1ccc(F)cc1Cl)N1CCN(S(=O)(=O)c2cccs2)CC1	inconclusive [activator, single point]	–
Clc1ccccc1-c1ccc2ncnc(NCc3ccc4c(c3)OCO4)c2c1	inconclusive [activator, partial curve, poor fit]	–
CC(=O)Nc1cc(C(F)(F)F)ccc1Oc1cccc(Br)c1	inconclusive [activator, partial curve]	–
CC(C)[C@H]1C(=O)Nc2ccccc2N1C(=O)N[C@@H](Cc1ccccc1)C(=O)N[C@H](Cc1ccccc1)C(=O)O	inconclusive [activator, full curve, poor fit]	–
C[C@]12c3[nH]c4cc(-c5ccco5)ccc4c3CCN1C(=O)[C@@H](CC(=O)NCc1ccco1)C[C@@H]2C(=O)N1CCOCC1	–	inactive: 1.31%
C/C(=N\NC(=O)c1cc(Br)ccc1O)c1ccccn1	inconclusive [activator, partial curve, poor fit]	–
Cc1ccsc1-c1nc(CN2CCCC2c2ccc(F)cc2)c(C)o1 (stereo not given)	–	inactive: -0.205%
O=C(NCCOc1nc(N2CCCCC2)nc(N2CCOCC2)n1)Nc1ccccc1	–	inactive: -9.51%
O=C(/C=C/c1ccccc1Cl)NNC(=O)c1cccs1	–	inactive: -3.69%
O=C1/C(=C/N(C(=O)c2ccco2)c2ccc(Cl)cc2)Sc2ccccc21	inconclusive [activator, single point]	–
COc1ccc(CCNC(=O)c2ccc(CN3CCC(Cc4ccccc4)CC3)cc2)cc1OC	–	inactive: 5.76%
Nc1cc(CN2C(=O)c3ccccc3C2=O)cc(Cl)c1O	inconclusive [activator, full curve, poor fit]	–

Compound	Potency	activity, positive = re-replication
Cc1sc(NC(=O)c2ccco2)c(C(c2ccccc2)N2CCC(C)CC2)c1C (stereo not given)	inconclusive [activator, partial curve]	–
COc1ccc2c3c(ccc2c1)C(=O)/C(=C/O)CC3	inconclusive [activator, single point]	–
COc1cccc(-c2cn3nc4c(nc3n2)CCCC4)c1	inconclusive [activator, single point]	–
O=C(CNCc1ccccn1)N1CCc2ccccc2C1	–	inactive: -3.49%
CCc1nn(CC(=O)NCCC2=CCCCC2)c(=O)c2cc3cc(F)ccc3n12	–	inactive: 3.23%
CCN1CCCC(NC(=O)c2cc([N+](=O)[O-])ccc2OC)C1 (stereo not given)	–	inactive: 5.58%
CN1CCN(C(=O)c2ccccc2NC(=O)CCN2C(=O)c3ccccc3C2=O)CC1	–	inactive: 9.38%
COc1ccc(-c2nnc(SCC(=O)c3[nH]c(C)c(C(C)=O)c3C)o2)cc1	–	inactive: 3.73%
COc1cc(Cn2nnc3ccccc32)cc(Br)c1O	–	inactive: 19.9%
CC(OC(=O)c1ccc(Cl)nc1)C(=O)NC(C)(C)C (stereo not given)	–	inactive: -3.73%
C=CCn1c(SCc2ccc(C(=O)NCCO)cc2)nc2ccccc2c1=O	inconclusive [activator, partial curve, poor fit]	–
Cc1csc(NC(=O)c2cc(-c3ccccc3)nc3ccccc23)n1	inconclusive [activator, single point]	–
O=C(NC1CCOCC1)C1CCC(=O)N(Cc2ccc(Cl)cc2)C1 (stereo not given)	–	inactive: 9.43%
O=C(O)c1cccnc1SCc1cn2cc(Cl)ccc2n1	inconclusive [activator, single point]	–
C=CC[C@@H](CC(=O)NCCO)C(=O)N[C@@H](COC(=O)[C@@H](CC=C)CC(=O)OC(C)(C)C)Cc1c[nH]c2ccccc12	–	inactive: 1.06%
C=C1C(=O)O[C@H]2C[C@H]1[C@@H](OC(C)=O)C/C(C)=C/CC/C(C)=C\CC[C@]2(C)O	inconclusive [activator, partial curve]	–
CN(C)c1ccc(/C=C2\NC(=S)N(Cc3ccccc3)C2=O)cc1	inconclusive [activator, full curve, poor fit]	–
COc1ccc(NC(=O)c2sc3nc(N4CCOCC4)c4c(c3c2N)CC(C)(C)OC4)cc1	–	inactive: 9.88%
O=C1/C(=C/c2cccc(Br)c2)SC(=S)N1/N=C/c1cc([N+](=O)[O-])ccc1O	inconclusive [activator, partial curve, poor fit]	–
C=C(C)COc1ccc(-c2nc(N)ncc2-c2ccc(OC)c(OC)c2)c(O)c1	inconclusive [activator, partial curve, poor fit]	–
CC(C)CN1C(=O)/C(=C(/C#N)C(=O)NC2CCCCC2)c2ccccc21	inconclusive [activator, single point]	–
CCOc1ccc(OCc2ccc(C(=O)N3CCc4ccccc4C3)o2)cc1	inconclusive [activator, full curve, poor fit]	–
COc1cc(N/N=C/c2ccccc2O)ncn1	inconclusive [activator, partial curve, poor fit]	–
COc1cc(/C=C2\SC(=S)N(CCC(=O)Nc3ccc(O)cc3)C2=O)cc(OC)c1OC	active: 16.4 µM	–

Compound	Potency	activity, positive = re-replication
Cc1ccc(Sc2c([N+](=O)[O-])ncn2C)cc1	inconclusive [activator, single point]	–
O=C(NCc1ccccc1)C1=C[C@H](C2CCCCC2)C[C@H](OCCCCO)O1	–	inactive: 22.6%
C=CCOC(=O)C1=C[C@@H](c2ccc(Br)cc2)C[C@@H](OCc2ccc(CO)cc2)O1	inconclusive [activator, single point]	–
O=c1c2cc(NC(=S)NCc3cccnc3)ccc2nc2n1CCCCC2	inconclusive [activator, single point]	–
O=C(c1cc(-c2ccccc2)nn1-c1ccccc1)N1CCN(S(=O)(=O)c2c(F)cccc2F)CC1	inconclusive [activator, partial curve, poor fit]	–
CC(NC(=O)CCl)c1ccc(Cl)c(Cl)c1 (stereo not given)	inconclusive [activator, single point]	–
Cc1ccc(Sc2ccc(N)cc2C#N)cc1	–	inactive: 3.97%
O=C(COC(=O)C1CC(=O)N(Cc2ccco2)C1)Nc1ccccc1[N+](=O)[O-] (stereo not given)	inconclusive [activator, single point]	–
O=C(OCC(=O)N1CCOCC1)C(c1ccccc1)c1ccccc1	–	inactive: 9.03%
O=c1c([N+](=O)[O-])c(N2CCCC2)c2ccccc2n1-c1ccccc1	–	inactive: 8.23%
O=C(N/N=C/c1ccccn1)c1ccc(N/N=C/c2ccccn2)cc1	–	inactive: 5.24%
O=C(c1ccccc1Cl)N1CCN(Cc2ccc3c(c2)OCO3)CC1	inconclusive [activator, single point]	–
Cc1cc(C(=O)N/N=C/c2ccc(OC(=O)c3ccccc3Br)cc2)n[nH]1	–	inactive: -0.247%
CCCn1c(NC(=O)CCS(=O)(=O)c2ccc(C)cc2)nc2ccccc21	inconclusive [activator, single point]	–
COc1ccc(/C=C2\N=C(c3ccccc3Cl)NC2=O)cc1	active: 13 µM	–
O=C(c1cccc(S(=O)(=O)N2CCc3ccccc32)c1)N1CCN(c2ccccc2)CC1	inconclusive [activator, single point]	–
CCCCSc1cnn(-c2ccccc2)c(=O)c1SCCCC	inconclusive [activator, single point]	–
CC(=O)c1cccc(NC(=O)N2CCC(NC(=O)c3ccco3)CC2)c1	–	inactive: 1.44%
O=C(CN1CCOCC1)N/N=C/c1ccco1	–	inactive: -50.3%
CCOC(=O)c1c(C)[nH]c(C(=O)COC(=O)[C@H](C)N2C(=O)C3CCCCC3C2=O)c1C (stereo not given in full)	inconclusive [activator, single point]	–
Cc1ccc(S(=O)(=O)CCSc2nc(C)cc(C(F)(F)F)c2C#N)cc1	inconclusive [activator, single point]	–
O=C(NCc1ccc(F)cc1)C1CCN(S(=O)(=O)N2CCCCC2)CC1	–	inactive: 4.58%
